# Laboratory results reported in article PMC4336329 (PLoS ONE, 2015).
# Hit rate of the full screen: of about 310,000 compounds, about 2,200 (0.71%) showed an effect of 50% or more. The effect is printed as a negative number. Some of the results follow.
# Target: human ether-à-go-go-related gene (hERG) potassium channel (human, UniProt Q12809)
# Assay: primary screen, population patch clamp on CHO cells stably expressing hERG
# Sequence of human ether-à-go-go-related gene (hERG) potassium channel (Q12809 whole entry, looked up): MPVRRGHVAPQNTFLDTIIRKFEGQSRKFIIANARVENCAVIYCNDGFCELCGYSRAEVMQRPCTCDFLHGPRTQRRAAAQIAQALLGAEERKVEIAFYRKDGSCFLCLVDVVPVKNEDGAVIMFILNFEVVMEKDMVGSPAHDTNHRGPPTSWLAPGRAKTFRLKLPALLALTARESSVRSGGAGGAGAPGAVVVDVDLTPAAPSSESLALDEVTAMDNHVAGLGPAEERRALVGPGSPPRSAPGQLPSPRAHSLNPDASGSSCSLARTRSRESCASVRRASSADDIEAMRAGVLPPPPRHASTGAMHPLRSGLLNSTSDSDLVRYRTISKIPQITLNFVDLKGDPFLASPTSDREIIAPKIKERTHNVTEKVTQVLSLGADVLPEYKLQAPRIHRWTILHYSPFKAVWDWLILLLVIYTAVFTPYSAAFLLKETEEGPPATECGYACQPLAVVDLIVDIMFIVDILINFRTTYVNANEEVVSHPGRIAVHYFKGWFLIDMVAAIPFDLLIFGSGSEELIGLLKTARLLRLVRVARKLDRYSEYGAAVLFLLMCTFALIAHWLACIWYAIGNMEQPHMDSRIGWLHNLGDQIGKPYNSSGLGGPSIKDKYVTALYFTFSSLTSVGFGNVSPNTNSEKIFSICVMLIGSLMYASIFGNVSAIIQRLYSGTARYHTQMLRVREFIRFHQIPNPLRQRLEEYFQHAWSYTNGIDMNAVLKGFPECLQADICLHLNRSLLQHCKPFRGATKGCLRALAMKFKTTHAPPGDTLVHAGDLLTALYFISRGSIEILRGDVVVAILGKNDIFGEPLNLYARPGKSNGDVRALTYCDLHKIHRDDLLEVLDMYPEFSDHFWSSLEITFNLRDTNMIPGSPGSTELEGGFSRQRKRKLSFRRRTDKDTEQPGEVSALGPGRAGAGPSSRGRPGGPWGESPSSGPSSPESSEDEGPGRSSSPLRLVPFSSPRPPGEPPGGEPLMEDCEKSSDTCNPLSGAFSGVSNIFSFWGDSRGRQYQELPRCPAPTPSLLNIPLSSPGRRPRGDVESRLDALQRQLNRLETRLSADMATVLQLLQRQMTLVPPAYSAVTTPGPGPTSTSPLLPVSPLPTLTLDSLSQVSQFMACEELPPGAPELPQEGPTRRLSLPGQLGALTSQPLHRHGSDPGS
row,Structure (SMILES),"hERG current change (%, negative = inhibition) at 1uM"
1,O=C(CCc1nnc2ccc(NCc3ccco3)nn12)Nc1cc(F)ccc1F,8.22%
2,CC(SC#N)C(=O)C12CC3CC(CC(C3)C1)C2 (stereo not drawn),2.38%
3,O=C(Nc1ccc(OC(=O)c2cccnc2)cc1)c1cccnc1,7.98%
4,Clc1ncnc2scc(-c3ccc(Br)cc3)c12,6.74%
5,O=C(c1cccs1)N(c1ccc(F)cc1)C1C=CS(=O)(=O)C1 (stereo not drawn),5.92%
6,O=C(NC1CCS(=O)(=O)C1)c1cccnc1 (stereo not drawn),1.54%
7,COc1ccc(/C=C/C(=O)NC(C)CCc2ccccc2)cc1 (stereo not drawn),-1.57%
8,Cn1c(CSCc2ccc(Cl)cc2)n[nH]c1=S,14.3%
9,CCNC(=O)CC1C(=O)N(c2ccc(C)cc2)C(=O)N1CCOC (stereo not drawn),15.9%
10,O=C(CS(=O)(=O)c1ccccc1)Nc1ccccn1,25.4%
11,CCOC(=O)C1CCN(C(=O)c2ccccc2NC(C)=O)CC1,13.1%
12,O=C(c1cccs1)N1CCn2c1nc1ccccc12,-16.9%
13,CCOC(=O)c1sc(=NC(=O)c2cccc(C)c2)n(C)c1C,7.92%
14,O=C(Nc1ccc(-c2csnn2)cc1)C1CC1,13.5%
15,O=C(Nc1ccc(N2CCCCCC2)cc1)c1cccc(S(=O)(=O)N2CCOCC2)c1,3.22%
16,COc1ccccc1NC(=O)Nc1nc(CC(=O)N2CCN(c3ccccc3F)CC2)cs1,21.8%
17,COc1ccccc1C(=O)NC(CCSC)C(=O)NNC(=O)C(C)Oc1ccccc1F (stereo not drawn),6.34%
18,O=C(COc1ncnc2scc(-c3ccccc3)c12)NCCN1C(=O)CSC1=O,4.5%
19,COc1ccc(SCCN2CC[C@@H](C(C)(C)C)CCC2=O)cc1,11.7%
20,COc1ccc(NC(=O)CSc2nc3nc(C)cc(C)n3n2)cc1,3.09%
21,COc1cc(C(=O)Nc2ccccc2N2CCOCC2)ccc1OCC(=O)N1CCOCC1,19.9%
22,Cc1[nH]nc2c1C(c1cnn(C)c1)C(C#N)=C(N)O2 (stereo not drawn),-9.29%
23,CC(NC(=O)c1cc(-c2ccccc2)on1)c1ccccc1 (stereo not drawn),12.1%

row,Structure (SMILES),"hERG current change (%, negative = inhibition) at 1uM"
1,c1ccc(N2CCCCC2)c(Nc2nc3ccccc3n3cnnc23)c1,10.4%
2,CCOc1ccc(-c2nc(CSCC(=O)NC3CC3)c(C)o2)cc1,15.1%
3,CC1=C(C(=O)OC(C)C)C(c2cccs2)NC(=O)N1 (stereo not drawn),13.9%
4,CC(CC(=O)N1CCc2ccccc21)c1ccccc1 (stereo not drawn),-1.81%
5,CC(C(=O)Nc1sc2c(c1C(=O)NCC1CCCO1)CCC2)N1C(=O)c2ccccc2C1=O (stereo not drawn),14.4%
6,O=C(NCc1cccs1)c1cc(-c2ccccc2)nn1CC1CC(c2cccnc2)=NO1 (stereo not drawn),-17.7%
7,CCOC(=O)C1(CCOc2ccccc2)CCN(C2Cc3ccccc3C2)CC1,-16.8%
8,O=C(Nc1ccccc1)c1ccccc1N=Cc1cccc(O)c1,12.7%
9,CCOC(=O)C1CCCN(C(=O)c2cccs2)C1 (stereo not drawn),14.5%
10,c1cc(CNCCCN2CCOCC2)ccn1,6.18%
11,O=C(COC(=O)c1ccccc1)c1ccc(Br)cc1,8.24%
12,Cc1nnc(SCc2nnc(-c3cccs3)o2)n1C1CCCCC1,10.4%
13,COc1ccccc1/C=C1\SC(=O)N(CCC(=O)NNC(=O)c2ccccc2Cl)C1=O,9.9%
14,Cc1cccnc1NC(=O)c1ccc(S(=O)(=O)N2CCCCCC2)cc1,11.1%
15,CCOc1ccc(NC(=O)c2nccnc2CO)cc1,-4.47%
16,COc1ccc(NC(=O)COC(=O)c2ccccc2SCC(=O)N2CCCC2)cc1,-37%
17,COC(=O)c1ccc(C(=O)OC)c(NC(=S)N2CCCC(CO)C2)c1 (stereo not drawn),9.6%
18,CC(NS(C)(=O)=O)C(c1cccs1)N1CCN(c2ccccc2)CC1 (stereo not drawn),-0.402%
19,CC[N+](C)(CC)CC(=O)OCC1C(C)C=C(C)CC1C.[I-] (stereo not drawn),12.8%
20,CC(=O)Oc1ccc2ccccc2c1C(NC(=O)Cc1ccccc1)c1ccccc1Cl (stereo not drawn),13%
21,Cc1ccc(SCCC(=O)NCc2ccncc2)cc1,-2.28%
22,C#CCOCCOCCOCCNc1nc(N2CCN(C(=O)[C@H]([C@@H](C)CC)n3cc(CCC[NH+]=C(N)N)nn3)CC2)nc(N2CCN(C(=O)[C@H](Cc3ccc(O)cc3)n3cc(CCO)nn3)CC2)n1.[Cl-],17.6%
23,O=C(CSc1nncn1-c1ccccn1)Nc1ccccc1Cl,16.8%

row,Structure (SMILES),"hERG current change (%, negative = inhibition) at 1uM"
1,Cc1ccccc1N(CC(=O)NC1CCCCC1)C(=O)CCCC(=O)Nc1ccccn1,11.2%
2,COc1cc(OC)cc(C(=O)NCCCCc2ccccc2)c1,2.88%
3,CCCCC(=O)OCCNC(=O)c1cc2ccccc2oc1=O,8.48%
4,CCc1ccc(N2CC(C(=O)Nc3cccc(C(=O)NC4CC4)c3)CC2=O)cc1 (stereo not drawn),5.43%
5,O=C(O)CCN1C(=O)c2ccc(NC(=O)CSc3ccccc3)cc2C1=O,5.37%
6,O=C(O)CCC(=O)Nc1cccc2cccnc12,7.78%
7,CCNC(=O)COc1ncnc2scc(-c3ccc(F)cc3)c12,-2.9%
8,CN1CCN(c2nccc3c2ncn3C)CC1.Cl,8.33%
9,CC(C)(C)c1ccc(C(=O)NNC(=O)c2ccncc2)cc1,14%
10,O=C(O)C1Cc2ccccc2-c2ccccc2C1,8.27%
11,Cc1cc(C)nc(NC(=O)C(c2ccccc2)c2ccccc2)n1,5.45%
12,Cc1cccc(NC(=S)N(CCCN2CCOCC2)Cc2ccccn2)c1,0.627%
13,O=C(Nc1nnc(S(=O)(=O)N2CCOCC2)s1)c1cccc(F)c1,15.5%
14,COC(=O)C1=C(O)CSC1=Nc1cccc(C(F)(F)F)c1,-2.75%
15,O=C(CN1C(=O)CCSc2ccccc21)Nc1ccc2c(c1)OCCO2,8.2%
16,CC(=O)Oc1ccc(N(C(C)=O)S(=O)(=O)c2ccc(Cl)cc2)c2ccccc12,14.4%
17,CCOC(=O)C1CCCN(C(=O)c2cc(Nc3ccc(OC)cc3OC)nc3ccccc23)C1 (stereo not drawn),0.882%
18,O=C(CCCOc1ccc(Cl)cc1Cl)N/N=C/c1ccccc1,11%
19,COc1ccc(NC(=O)CCS(=O)(=O)c2ccc3c(c2)CCCN3C(C)=O)cc1,0.571%
20,O=C(CC1C(=O)NCCN1Cc1ccc(-c2ccccc2)cc1)NCCCn1cccn1 (stereo not drawn),7.28%
21,O=c1cc(-c2ccccc2Cl)oc2c(NS(=O)(=O)c3ccccc3OC(F)(F)F)ccc(O)c12,5%
22,Cc1c(N(C(=O)c2ccccn2)C2(C(=O)NC3CCCCC3)CCCCC2)c(=O)n(-c2ccccc2)n1C,0.566%
23,C[n+]1ccc(/C=C/c2c[nH]c3ccc(F)cc23)cc1.[I-],8.21%

row,Structure (SMILES),"hERG current change (%, negative = inhibition) at 1uM"
1,CCCCNc1ccc2nsnc2c1[N+](=O)[O-],4.7%
2,CN(C)S(=O)(=O)c1ccc(C(=O)Nc2cc3c(cc2C(=O)O)OCCCO3)cc1,8.36%
3,CC(C)(C)c1cc[n+](/C(C(=S)NC2CC2)=C(/[O-])c2ccc(Cl)s2)cc1,-20.6%
4,Cn1cccc1CNC(=O)Nc1ccc(Cl)cc1,-16.8%
5,Cc1cc(NC(=O)c2c([N+](=O)[O-])cnn2C)no1,9.91%
6,O=C(CN1C(=O)c2ccccc2S1(=O)=O)Nc1ccc(S(=O)(=O)N2CCCC2)cc1,-1.28%
7,Cc1no[n+]([O-])c1COc1ccc(/C=C2\NC(=S)NC2=O)cc1,2.21%
8,COc1ccccc1NC(=O)Cn1cnc2c(cnn2-c2ccccc2)c1=O,7.99%
9,CCOC(=O)c1c(NC(=O)Cn2nc(C(=O)O)c3ccccc3c2=O)sc2c1CCC(C)C2 (stereo not drawn),12.4%
10,COc1ccccc1NC(=O)CSc1ccc(-c2ccc(-n3cccn3)cc2)nn1,12.5%
11,O=C(NCCCO)C(=O)NCc1ccccn1,11.6%
12,Cc1onc(-c2c(F)cccc2Cl)c1C(=O)c1ccccc1O,6.42%
13,CC(=O)N(Cc1ccccc1)Cc1nc2sc(C)c(C)c2c(=O)[nH]1,10.4%
14,Cn1c2c(c(=O)n(C)c1=O)C(NS(=O)(=O)c1ccccc1)(C(F)(F)F)C(=O)N2 (stereo not drawn),12.9%
15,CC(=O)c1cc2c(cc1NS(=O)(=O)c1cccc(C(=O)O)c1)OCO2,17%
16,CC1CCCC/C1=N\NS(=O)(=O)c1ccc(Br)cc1 (stereo not drawn),6.85%
17,CCOC(=O)c1cn[nH]c1N,10.1%
18,COc1ccc(CCNC(=O)C2CC(=O)N(c3ccc(C)cc3)C2)cc1OC (stereo not drawn),8.45%
19,CCC(C)c1ccccc1N1CC(C(=O)NCCc2ccc(OC)c(OC)c2)CC1=O (stereo not drawn),8.81%
20,CC1=C(C(=O)NC2CCC(C)CC2)C2(CCC(C)CC2)OC1=O (stereo not drawn),10.3%
21,CCc1cccc2c(C(=O)Cn3nnc(-c4ccc(OC)c(OC)c4)n3)c[nH]c12,5.3%
